Screen size: about 3,200 compounds; about 75 (2%) showed an effect of 50% or more. The list shows a part of the results.

The test relates to T1, S. aureus MSSA476.
T1 construct: MSSA476
Set-up: species or system S. aureus MSSA476 (TSB) or V. cholerae SAD30 (LB); 384-well bacterial growth screen at 25 uM, OD600 relative to DMSO control. Conditions: relative growth, OD600, TSB; 25 µM; inhibitor.
In the case of `C=CC(=O)N[C@H](C)c1cnnn1C` [3-B11, N-[(1R)-1-(1-methyl-1H-1,2,3-triazol-5-yl)ethyl]prop-2-enamide], the “% of control remaining” value was determined as 140.009%.

With `CC(C)NC(=O)C(C#N)=Cc1cccc2ccccc12` [8-P06, 2-cyano-3-(naphthalen-1-yl)-N-(propan-2-yl)prop-2-enamide], the “% of control remaining” value amounted to 127.801%.

On to `C=CC(=O)NC1(c2ncon2)CCOCC1` [3-K22, N-[4-(1,2,4-oxadiazol-3-yl)oxan-4-yl]prop-2-enamide], for which the “% of control remaining” value was found to be 88.8115%.

With `N#CC(=Cc1c2ccccc2cc2ccccc12)C(=O)NC1CCCCC1` [8-D14, 3-(anthracen-9-yl)-2-cyano-N-cyclohexylprop-2-enamide], the “% of control remaining” value is 122.822%.

For `O=C1CCc2cc(C(=O)CCl)ccc2N1` [10-M03, 6-(2-chloroacetyl)-1,2,3,4-tetrahydroquinolin-2-one], the “% of control remaining” value is listed as 83.125%.

Turning to `C=CC(=O)N1CCC(NC(=O)c2oc(C)cc2C)CC1` [2-K17, 3,5-dimethyl-N-[1-(prop-2-enoyl)piperidin-4-yl]furan-2-carboxamide], the “% of control remaining” value was found to be 106.179%.

Turning to `CC(Cl)C(=O)N1CCOCC1c1ncnn1Cc1ccccc1` (centres unmarked) [7-C08, 1-[3-(1-benzyl-1H-1,2,4-triazol-5-yl)morpholin-4-yl]-2-chloropropan-1-one], the “% of control remaining” value is 96.3893%.

Turning to `O=C(CCl)NCc1cccc(NC(=O)C2CC2)c1` [4-D22, N-{3-[(2-chloroacetamido)methyl]phenyl}cyclopropanecarboxamide], the “% of control remaining” value is given as 114.721%.

As to `NC(=O)Cc1ccc(C(=O)CCl)s1` [10-A21, 2-[5-(2-chloroacetyl)thiophen-2-yl]acetamide], the “% of control remaining” value stood at 152.5%.

Consider `COc1cc(Cl)c(C)cc1N1C(=O)C=CC1=O` [10-B15, 1-(4-chloro-2-methoxy-5-methylphenyl)-2,5-dihydro-1H-pyrrole-2,5-dione], for which the “% of control remaining” value came to 91.875%.

With `C=CC(=O)N1CCC(C(=O)N2CCCCC(SCC)C2)CC1` (centres unmarked) [2-P10, 1-{4-[3-(ethylsulfanyl)azepane-1-carbonyl]piperidin-1-yl}prop-2-en-1-one], the “% of control remaining” value worked out at 76.9365%.

Regarding `C=CC(=O)NC(c1ccccc1)c1nc(C)no1` (centres unmarked) [1-B13, N-[(3-methyl-1,2,4-oxadiazol-5-yl)(phenyl)methyl]prop-2-enamide], the “% of control remaining” value worked out at 150.857%.

As to `C=CC(=O)NCC1CCS(=O)(=O)C1(C)C` (centres unmarked) [1-O16, N-[(2,2-dimethyl-1,1-dioxo-1lambda6-thiolan-3-yl)methyl]prop-2-enamide], the “% of control remaining” value is listed as 125.89%.

For the molecule `CCC(C)(C)C1CCc2c(sc(NC(=O)CCl)c2C#N)C1` (centres unmarked) [5-A05, 2-chloro-N-[3-cyano-6-(2-methylbutan-2-yl)-4,5,6,7-tetrahydro-1-benzothiophen-2-yl]acetamide], the “% of control remaining” value stood at 77.9599%.

As for `C=CC(=O)NC1CCC(S(C)(=O)=O)C1` (centres unmarked) [3-F18, N-(3-methanesulfonylcyclopentyl)prop-2-enamide], the “% of control remaining” value is 114.236%.

With `Cc1c(C=C(C#N)C(=O)NCC2(c3ccccc3)CC2)cc(C#N)n1C` [8-E22, 2-cyano-3-(5-cyano-1,2-dimethyl-1H-pyrrol-3-yl)-N-[(1-phenylcyclopropyl)methyl]prop-2-enamide], the “% of control remaining” value was 97.5934%.

As for `CCc1ccc(NC(=O)CCl)cc1` [4-P03, 2-chloro-N-(4-ethylphenyl)acetamide], the “% of control remaining” value is recorded as 94.1401%.

As to `C=CC(=O)NCc1cc(-c2ccccc2OC)no1` [2-C18, N-{[3-(2-methoxyphenyl)-1,2-oxazol-5-yl]methyl}prop-2-enamide], the “% of control remaining” value came to 111.053%.

In the case of `CC(=O)N1CCc2cc(C(=O)C(C)Cl)ccc21` (centres unmarked) [10-L22, 1-(1-acetyl-2,3-dihydro-1H-indol-5-yl)-2-chloropropan-1-one], the “% of control remaining” value is 124.375%.

Take `COc1cc(NC(=O)CCl)cc(OC)c1OC` [4-N12, 2-chloro-N-(3,4,5-trimethoxyphenyl)acetamide]: the “% of control remaining” value stood at 89.9476%.

With `CC(Cl)C(=O)NC1COc2ccc(F)cc21` (centres unmarked) [7-A17, 2-chloro-N-(5-fluoro-2,3-dihydro-1-benzofuran-3-yl)propanamide], the “% of control remaining” value was found to be 95.4474%.

Turning to `CC(C#N)Oc1ccc(C=C(C#N)C(=O)Nc2ccccc2Cl)cc1` (centres unmarked) [9-E05, N-(2-chlorophenyl)-2-cyano-3-[4-(1-cyanoethoxy)phenyl]prop-2-enamide], the “% of control remaining” value came out at 124.644%.

Consider `COc1ccc(NC(=O)C(C)Cl)cc1OC` (centres unmarked) [6-F12, 2-chloro-N-(3,4-dimethoxyphenyl)propanamide], for which the “% of control remaining” value is recorded as 97.3171%.

Consider `Cc1csc(CN2CCN(C(=O)C(C)Cl)CC2)n1` (centres unmarked) [5-H17, 2-chloro-1-{4-[(4-methyl-1,3-thiazol-2-yl)methyl]piperazin-1-yl}propan-1-one], for which the “% of control remaining” value came to 111.111%.

Consider `COc1ccc(-c2csc(NC(=O)CCl)n2)c(O)c1` [4-A11, 2-chloro-N-[4-(2-hydroxy-4-methoxyphenyl)-1,3-thiazol-2-yl]acetamide], for which the “% of control remaining” value was 1.1434%.

Take `COc1ccc(C2CCCN2C(=O)CCl)c(OC)c1` (centres unmarked) [4-P22, 2-chloro-1-[2-(2,4-dimethoxyphenyl)pyrrolidin-1-yl]ethan-1-one]: the “% of control remaining” value was found to be 106.717%.

`CC(C)Oc1ccccc1C=C(C#N)C(=O)Nc1ccccc1Cl` [9-N20, N-(2-chlorophenyl)-2-cyano-3-[2-(propan-2-yloxy)phenyl]prop-2-enamide]: the “% of control remaining” value came out at 84.4944%.

For the molecule `O=C(CCl)NC(c1ccccc1)c1ccco1` (centres unmarked) [4-A08, 2-chloro-N-[(furan-2-yl)(phenyl)methyl]acetamide], the “% of control remaining” value turned out to be 103.668%.

For the molecule `CC(Cl)C(=O)NC1(c2ccccc2)CCOCC1` (centres unmarked) [7-A11, 2-chloro-N-(4-phenyloxan-4-yl)propanamide], the “% of control remaining” value turned out to be 82.8885%.

Take `COC(=O)c1ccccc1NC(=O)CCl` [5-B12, methyl 2-(2-chloroacetamido)benzoate]: the “% of control remaining” value came to 100.911%.

On to `CC(Cl)C(=O)N1CCNC(=O)C1c1cccs1` (centres unmarked) [6-J17, 4-(2-chloropropanoyl)-3-(thiophen-2-yl)piperazin-2-one], for which the “% of control remaining” value worked out at 119.854%.

In the case of `COc1cccc([C@H]2C[C@H](N(C)C(=O)C(C)Cl)C2)c1` (some centres unmarked) [6-B17, 2-chloro-N-methyl-N-[(1r,3r)-3-(3-methoxyphenyl)cyclobutyl]propanamide], the “% of control remaining” value amounted to 110.293%.

Take `O=C(CCl)NCc1[nH]nc2c1CCCC2` [6-E04, 2-chloro-N-[(4,5,6,7-tetrahydro-2H-indazol-3-yl)methyl]acetamide]: the “% of control remaining” value came out at 90.4878%.

On to `CC(NC(=O)CCl)c1ccc2ncsc2c1` (centres unmarked) [6-A18, N-[1-(1,3-benzothiazol-6-yl)ethyl]-2-chloroacetamide], for which the “% of control remaining” value is 94.5854%.

With `Cc1noc(C)c1CC(=O)N1CCN(C(=O)C(C)Cl)CC1` (centres unmarked) [6-F11, 2-chloro-1-{4-[2-(3,5-dimethyl-1,2-oxazol-4-yl)acetyl]piperazin-1-yl}propan-1-one], the “% of control remaining” value came to 92.5366%.

For the molecule `CCN(CC)C(=O)/C(C#N)=C/c1cc(O)c(O)c([N+](=O)[O-])c1` [9-B04, (2E)-2-cyano-3-(3,4-dihydroxy-5-nitrophenyl)-N,N-diethylprop-2-enamide], the “% of control remaining” value is 68.9139%.

Regarding `CC(C1CC1)N(CC(F)(F)F)C(=O)CCl` (centres unmarked) [5-P08, 2-chloro-N-(1-cyclopropylethyl)-N-(2,2,2-trifluoroethyl)acetamide], the “% of control remaining” value is reported as 100.911%.

`CC(Cl)C(=O)Nc1ccccc1Cl` (centres unmarked) [4-D11, 2-chloro-N-(2-chlorophenyl)propanamide]: the “% of control remaining” value is 126.536%.

As for `O=C(CCl)N(c1ccccc1)C1CCCCC1` [4-L18, 2-chloro-N-cyclohexyl-N-phenylacetamide], the “% of control remaining” value is given as 109.767%.

Consider `COc1ccc(C=C(C#N)C(=O)Nc2cccc(Cl)c2)cc1` [8-I09, N-(3-chlorophenyl)-2-cyano-3-(4-methoxyphenyl)prop-2-enamide], for which the “% of control remaining” value is 124.813%.

Take `Cc1cc(C(=O)CCl)c(C)n1-c1ccc(C(C)C)cc1` [10-J12, 2-chloro-1-{2,5-dimethyl-1-[4-(propan-2-yl)phenyl]-1H-pyrrol-3-yl}ethan-1-one]: the “% of control remaining” value is on record as 5.3125%.

Turning to `O=C(CCl)N1CCCSc2ccccc21` [4-E16, 2-chloro-1-(2,3,4,5-tetrahydro-1,5-benzothiazepin-5-yl)ethan-1-one], the “% of control remaining” value is on record as 116.627%.

Regarding `C=CC(=O)N(C)Cc1cccnc1` [3-L11, N-methyl-N-[(pyridin-3-yl)methyl]prop-2-enamide], the “% of control remaining” value is 110.753%.

For the molecule `CC(Cl)C(=O)NCC1CC(=O)N(c2ccccc2)C1` (centres unmarked) [7-O20, 2-chloro-N-[(5-oxo-1-phenylpyrrolidin-3-yl)methyl]propanamide], the “% of control remaining” value turned out to be 113.658%.

On to `Cc1cc(C=C(C#N)C(=O)Nc2cnn(C)c2)c(C)n1C1CCCCC1` [9-B17, 2-cyano-3-(1-cyclohexyl-2,5-dimethyl-1H-pyrrol-3-yl)-N-(1-methyl-1H-pyrazol-4-yl)prop-2-enamide], for which the “% of control remaining” value came out at 85.9925%.

As for `CCN(C(=O)CCl)c1c(N)n(Cc2ccccc2)c(=O)[nH]c1=O` [4-P10, N-(6-amino-1-benzyl-2,4-dioxo-1,2,3,4-tetrahydropyrimidin-5-yl)-2-chloro-N-ethylacetamide], the “% of control remaining” value is 99.4759%.

For `C=CC(=O)NCc1ccno1` [1-O07, N-[(1,2-oxazol-5-yl)methyl]prop-2-enamide], the “% of control remaining” value is 97.4066%.

Values taken from publication PMC11995724, “Antibiotic target discovery by integrated phenotypic and activity-based profiling of electrophilic fragments” (Cell chemical biology, 2025).
